The values that follow come from PubChem BioAssay (NCI).

For this assay, the system named is NCI-H322M lung. Briefly: growth of human tumour cells (NCI), 48 h.

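How tested: cells in 96-well plates exposed to compound for 48 hours at five concentrations. GI50 is the concentration that inhibits growth by half. At the TGI there is no net growth.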 Peptide text beside a SMILES is read from it.

In turn, `CCN(CC)CSc1nc2ccccc2s1` had a TGI above 100 µM.

Take `COc1cc(/C=C/C(=O)c2ccc(NS(=O)(=O)c3cc([N+](=O)[O-])ccc3C)cc2)cc(OC)c1OC`: the TGI was 16.3 µM.

`COc1cc(C(=O)C/C(CCCC(=O)Nc2ccccc2[N+](=O)[O-])=N/NC(=O)c2cc3ccccc3cc2O)ccc1O` gave a TGI above 100 µM.

Take `CC(=O)OCOC(=O)CN(CC(=O)OCOC(C)=O)Cc1cc2c(cc1OC(C)=O)Oc1cc(OC(C)=O)c(CN(CC(=O)OCOC(C)=O)CC(=O)OCOC(C)=O)cc1C21OC(=O)c2ccccc21`: the TGI turned out to be 8.91 µM.

`O=CC(=C(I)I)c1ccccc1` displayed a TGI of 29.2 µM.

`C=CCOc1ccc(/C(N=Nc2ccc(Cl)cc2)=N/NC(=O)c2ccccc2)cc1OC` showed a TGI above 100 µM.

As to `Cc1nc(N)nc(N)c1-c1ccc(Cl)c(Cl)c1`, the TGI was above 100 µM.

`NNC(=O)/C(=C/c1ccc(Cl)cc1Cl)NC(=O)c1ccccc1` had a TGI above 100 µM.

`O=C(O)/C=C\C(=O)N1C/C(=C\c2ccccc2Cl)C(=O)/C(=C/c2ccccc2Cl)C1`: the GI50 was 4.3 µM and the TGI is 15.6 µM.

For `COc1cc(C2C(C(=O)O)=C(CO)Oc3cc4c(cc32)OCO4)cc(OC)c1O` (stereo not drawn), the TGI was above 100 µM.

As to `Nc1ccccc1C#C/C=C\C#Cc1cccs1`, the GI50 is 13 µM and the TGI was 39.2 µM.

In the case of `Nc1ncnc2ccc(Sc3ccc4ncnc(N)c4c3)cc12`, the TGI is above 100 µM.

The molecule `CSc1ccc(C2OC(=O)c3ccccc32)c2ccccc12` (stereo not drawn) had a TGI above 100 µM.

`O=C1C(Cl)=C(OCCCCl)C(=O)c2c(O)ccc(O)c21`: the TGI came to 3.4 µM.

Regarding `COc1ccc2c(c1)cn1c3ccc(O)cc3nc(N)c21`, the GI50 was 0.977 µM and the TGI was 11.5 µM.

Regarding `N#CCc1nc2ccccc2c(=O)[nH]1`, the TGI was above 100 µM.

The molecule `NC(=O)N=C(N(Cc1ccccc1)Cc1ccccc1)N(Cc1ccccc1)Cc1ccccc1` returned a TGI above 100 µM.

`COc1ccc(-c2csc(N(C(=O)N3CCN(c4cc5c(cc4F)c(=O)c(C(=O)O)cn5C4CC4)CC3)c3ccccc3)n2)cc1`: the GI50 is 2.77 µM and the TGI came out at 14.9 µM.

As to `COc1cc2c(c(OC)c1)C1c3ccccc3NC(=O)N1CC2` (stereo not drawn), the GI50 is 7.13 µM and the TGI was above 100 µM.

Regarding `NC(=O)c1cc2cc(Cl)cc(Cl)c2oc1=Nc1ccc(F)cc1`, the TGI stood at 29.8 µM.

Regarding `CCCCCCCCCCCCCCCCN1CC2CCCCC2C1` (stereo not drawn), the GI50 is 21.8 µM and the TGI is 37.7 µM.

`CC(NNC(=O)c1ccncc1)c1ccc(F)cc1` (stereo not drawn) registered a TGI above 100 µM.

The molecule `CC1OC(O[C@@H]2OC=C(C=O)[C@@]3(O)CC[C@H](C)[C@@H]23)C(O)C(O)C1O` (stereo partly drawn) yielded a TGI above 100 µM.

`O=C(CN1CCOCC1)Nc1nc(-c2ccc(Cl)cc2)cs1`: the TGI was above 100 µM.

`C[C@H](OCc1ccccc1)C(=O)N1CCS(=O)(=O)N2CCC[C@H]2C1=O` returned a TGI above 100 µM.

`Oc1cccc2ccc(N/N=C/c3cc(CN4CCCCC4)c(O)c4ncccc34)nc12`: the GI50 is 0.467 µM and the TGI was 4.41 µM.

As to `Cn1c(=O)c2c(nc(-n3nc(-c4ccc(Cl)cc4)cc3N)n2C)n(C)c1=O`, the TGI is above 100 µM.

Regarding `COc1cc(C2CC(c3ccc4c(c3)OCO4)=NN2C=O)cc(OC)c1OC` (stereo not drawn), the GI50 is 4.86 µM and the TGI is above 100 µM.

As to `C1C[OH+]CC[OH+]CCNCC[OH+]CC[OH+]CCN1.N.[Cl-].[Pt+4]`, the GI50 is 20.4 µM and the TGI worked out at 69.8 µM.

Turning to `COc1ccc(-c2n/c(=C\c3c(O)[nH]c4ccc(OC)cc34)cc3c2=Nc2ccccc2-3)cc1`, the GI50 is 4.11 µM and the TGI is above 100 µM.

For `O=C(N/C(=C\c1ccc2c(c1)OCO2)c1nc2ccccc2[nH]1)c1ccccc1`, the TGI is above 100 µM.

As to `CN(CC1(CO)CCC1)c1cc(Cl)nc(N)n1`, the TGI is above 100 µM.

Take `Nc1nc2c(c3ncncc13)C(c1cccc(C(F)(F)F)c1)Cc1ncncc1-2` (stereo not drawn): the GI50 is 5.56 µM and the TGI was determined as 57.8 µM.

As for `CCCCCCCCCCCC(=O)Oc1c(Cl)cc(Cl)c(OC(=O)C(=O)Oc2c(Cl)cc(Cl)c(OC(=O)CCCCCCCCCCC)c2Cl)c1Cl`, the TGI is above 100 µM.

`Cc1csc(=S)n1OC(=O)NC1CCCCC1` came in with a TGI above 100 µM.

For `O=C(Cc1ccccc1)NNc1nc(NNC(=O)c2ccncc2)nc(Nc2ccc([N+](=O)[O-])cc2)n1`, the TGI was above 10 µM.

Molecule `CCc1ccccc1NC(=O)C(=O)CC(=O)c1sc(Nc2ccccc2)nc1C` yielded a TGI above 100 µM.

In the case of `COc1ccc(/C(C#N)=C/c2ccccc2OC)cc1`, the GI50 was 80.5 µM and the TGI was above 100 µM.

Regarding `COc1cccc(-n2ncc3c(N/N=C/c4ccc(C(=O)NCCN(C)C)cc4)ncnc32)c1`, the GI50 was 3.49 µM and the TGI was determined as 8.16 µM.

`Cc1c(C(=O)C/C(=N\O)C(=O)Nc2cc(Cl)c(Cl)cc2Cl)[n+](=O)c2ccccc2n1[O-]`: the TGI is 98.3 µM.

Molecule `COc1ccc(/C=C2\NC(=S)N(CN3CCCCC3)C2=O)cc1` returned a TGI above 100 µM.

For `O=C1/C(=C\c2c[nH]c3ccccc23)c2ccccc2N1c1c(Cl)cccc1Cl`, the GI50 was 2.01 µM and the TGI came to 6.01 µM.

With `CCOC(=O)c1ccc(N=C2C(=S)N(c3ccc(C(=O)OCC)cc3)C(=N)N2/N=C/c2ccccc2)cc1`, the TGI is above 100 µM.

As to `COC(=O)[C@@]1(C)CC[C@]2(C)CC[C@]3(C)C4=CC=C5C(=CC(=O)C(O)=C5C)[C@]4(C)[C@@H](O)C[C@@]3(C)[C@@H]2C1`, the GI50 is 13.1 µM and the TGI is 25.1 µM.

`C/C(=N/NC(=S)Nc1ccc([N+](=O)[O-])cc1)c1cccc(/C(C)=N\NC(=S)Nc2ccc([N+](=O)[O-])cc2)n1` had a TGI of 8.44 µM.

Turning to `O=C1c2cccnc2C(=O)c2nc3cc(N4CCN(C5CC5)CC4)ccc3nc21`, the GI50 was 0.285 µM and the TGI was 1.04 µM.

Molecule `Cn1cnc(CCc2ccccc2)n1` came in with a TGI above 100 µM.

As to `CC1=C(Oc2ccccc2)C(CCC(=O)O)c2c(O)cc(Cl)c(O)c21` (stereo not drawn), the TGI was above 100 µM.

Take `OC(c1cc(-c2ccccc2)nc2ccc(Cl)cc12)C1CCCCN1` (stereo not drawn): the GI50 was 2.31 µM and the TGI was determined as 6.04 µM.

Take `C=CCOc1cccc(/C=C2\SC(=Nc3ccc(O)cc3)NC2=O)c1`: the GI50 was 4.64 µM and the TGI was 46.6 µM.

With `COC(=O)[C@H](C[C@H](Cc1ccccc1)NC(=O)c1csc([C@@H](C[C@H](C(C)C)N(C)C(=O)[C@@H](NC(=O)[C@H]2CCCCN2C)C(C)C)OC(C)=O)n1)NC(=O)OCc1ccccc1`, the GI50 was 0.00227 µM and the TGI is above 9 µM.

In turn, `C=CC/C=C/Cc1csc(C(C)(C)C(O)C/C=C/C(=C)CCNC(=O)OC)n1` (stereo not drawn) returned a TGI above 100 µM.

As for `COC(=O)c1ccccc1CC1Cc2ccc3c(c2C1=O)CCC3` (stereo not drawn), the TGI was above 100 µM.

Take `C[C@]12CC[C@@H]3c4ccc(OP(=O)(O)O)cc4CC[C@H]3[C@@H]1CCC2=O`: the TGI was above 100 µM.

Turning to `COc1ccc(/C(=C2/O[C@@H]([C@H]3COC(C)(C)O3)[C@H]3OC(C)(C)O[C@@H]23)c2cc(OC)c(OC)c(OC)c2)cc1O`, the GI50 was 9.6 µM and the TGI was above 100 µM.

On to `O=C1[C@H]2ON(c3ccccc3)C(c3ccccc3Cl)[C@H]2C(=O)N1c1ccc(Cc2ccc(N3C(=O)[C@@H]4ON(c5ccccc5)C(c5ccccc5Cl)[C@@H]4C3=O)cc2)cc1` (stereo partly drawn), for which the TGI was above 100 µM.

In turn, `NC1C[C@H](n2cc(/C=C/Br)c(=O)[nH]c2=O)C[C@@H]1CO` (stereo partly drawn) came in with a TGI above 100 µM.

`CCOC(=O)c1nc2ccc(Cl)cc2c2c1Cc1ccccc1-2` showed a TGI above 100 µM.

`Cn1c(=S)[nH]c2sc3c(c2c1=O)CCSC3` displayed a TGI above 100 µM.

For the molecule `CN(C)C(=O)OC(Cn1cncn1)c1ccc(Cl)cc1Cl` (stereo not drawn), the TGI was above 100 µM.

In the case of `CCOC(=O)c1c(N2CCCC2)nsc1Nc1ccc(F)cc1`, the TGI is above 100 µM.

`CC(=O)N1C(c2[nH]c3ccccc3c2-c2ccccc2)CCN1c1ccccc1` (stereo not drawn) came in with a TGI above 10 µM.

In turn, `CCOP(=O)(OCC)C1CC(O)C(=O)N1` (stereo not drawn) showed a TGI above 100 µM.

In the case of `CC(=O)NC(CS/N=N/c1nc[nH]c1C(N)=O)C(=O)O` (stereo not drawn), the TGI was above 100 µM.

As to `CN(C)CC(=O)Nc1ccc(Cn2nnc3c2C(=O)c2nnn(Cc4ccc(NC(=O)CN(C)C)cc4)c2C3=O)cc1`, the GI50 was 0.224 µM and the TGI came out at 0.935 µM.

In turn, `N=c1c2c(C(N)=O)cn(C3OC(CO)C(O)C3O)c2ncn1O` (stereo not drawn) had a TGI of 0.933 µM.

Consider `COc1ccc2c(c1)/C(=C\c1c(C)nc3sccn13)C(=O)N2`, for which the GI50 is 1.7 µM and the TGI is above 100 µM.

With `CCCNC1=C(C(=O)OCC)C(=O)CO1`, the TGI is above 100 µM.

`CCC1NC(=O)C1NC(=O)OC` (stereo not drawn) registered a TGI above 100 µM.

`O=C1c2ccccc2S(=O)(=O)c2c1cccc2[N+](=O)[O-]` registered a TGI above 8.59 µM.

As for `CC(=O)N1C(=O)/C(=C\C(=O)c2ccc([N+](=O)[O-])cc2)c2ccccc21`, the TGI is above 100 µM.

Regarding `O=C(CCC(NC(=O)OCc1ccccc1)C(=O)OCc1ccccc1)Nc1ccc(OCc2ccccc2)cc1` (stereo not drawn), the TGI is above 31.6 µM.

The molecule `COc1ccc2nc(-n3c(/C=C/c4ccccc4O)nc4ccccc4c3=O)sc2c1` came in with a TGI above 100 µM.

In the case of `CCCCCC(=O)N[C@H](C(=O)N[C@H](C(=O)N(C)[C@H](C(=O)N1CCC[C@H]1C(=O)N1CCC[C@H]1C(=O)O[C@H](C(=O)N1C(=O)C=C(OC)[C@@H]1Cc1ccccc1)C(C)C)C(C)C)C(C)C)C(C)C` (HELM PEPTIDE1{[CCCCCC(=O)[*:2]].V.V.[meV].P.P.[COC1=CC(=O)N(C(=O)[C@@H](O[*:1])C(C)C)[C@H]1Cc1ccccc1]}$$$$V2.0), the TGI is above 100 µM.

For `O=C(NCCO)Nc1ccc(-c2nc(N3CCOCC3)c3cccn3n2)cc1`, the GI50 was 0.106 µM and the TGI amounted to 47 µM.

In the case of `CC(=O)OCC1OC(OC2C(CSC3OC(COC(C)=O)C(OC(C)=O)C(OC(C)=O)C3OC(C)=O)OC(OC(C)=O)C(OC(C)=O)C2OC(C)=O)C(OC(C)=O)C(OC(C)=O)C1OC(C)=O` (stereo not drawn), the TGI was above 100 µM.

`Cc1ccc(N=Cc2ccc3c(c2)OCO3)cc1C` had a TGI above 100 µM.

With `O=[N+]([O-])C(C(Cl)=C(Cl)Cl)=C(N(Cc1ccccc1)Cc1ccccc1)N(Cc1ccccc1)Cc1ccccc1`, the TGI is above 100 µM.

For `O=C1c2c(ccc3c2CCCC3)CC12Cc1ccc3c(c1C2=O)CCCC3`, the TGI is above 100 µM.

For the molecule `CCOc1ccc(NC(=O)C(=O)CC(=O)C2=C(C)Nc3ccccc3S2)cc1`, the TGI was above 50 µM.
